# Reference: paper PMC4336329 (PLoS ONE, 2015)
# In all, about 310,000 compounds went through this assay and about 2,200 (0.71%) showed an effect of 50% or more. Effects have a minus sign here. The list shows a part of the results.
# Target: human ether-à-go-go-related gene (hERG) potassium channel (human, UniProt Q12809)
# Assay: primary screen, population patch clamp on CHO cells stably expressing hERG
# Chain of human ether-à-go-go-related gene (hERG) potassium channel (Q12809 whole entry, looked up): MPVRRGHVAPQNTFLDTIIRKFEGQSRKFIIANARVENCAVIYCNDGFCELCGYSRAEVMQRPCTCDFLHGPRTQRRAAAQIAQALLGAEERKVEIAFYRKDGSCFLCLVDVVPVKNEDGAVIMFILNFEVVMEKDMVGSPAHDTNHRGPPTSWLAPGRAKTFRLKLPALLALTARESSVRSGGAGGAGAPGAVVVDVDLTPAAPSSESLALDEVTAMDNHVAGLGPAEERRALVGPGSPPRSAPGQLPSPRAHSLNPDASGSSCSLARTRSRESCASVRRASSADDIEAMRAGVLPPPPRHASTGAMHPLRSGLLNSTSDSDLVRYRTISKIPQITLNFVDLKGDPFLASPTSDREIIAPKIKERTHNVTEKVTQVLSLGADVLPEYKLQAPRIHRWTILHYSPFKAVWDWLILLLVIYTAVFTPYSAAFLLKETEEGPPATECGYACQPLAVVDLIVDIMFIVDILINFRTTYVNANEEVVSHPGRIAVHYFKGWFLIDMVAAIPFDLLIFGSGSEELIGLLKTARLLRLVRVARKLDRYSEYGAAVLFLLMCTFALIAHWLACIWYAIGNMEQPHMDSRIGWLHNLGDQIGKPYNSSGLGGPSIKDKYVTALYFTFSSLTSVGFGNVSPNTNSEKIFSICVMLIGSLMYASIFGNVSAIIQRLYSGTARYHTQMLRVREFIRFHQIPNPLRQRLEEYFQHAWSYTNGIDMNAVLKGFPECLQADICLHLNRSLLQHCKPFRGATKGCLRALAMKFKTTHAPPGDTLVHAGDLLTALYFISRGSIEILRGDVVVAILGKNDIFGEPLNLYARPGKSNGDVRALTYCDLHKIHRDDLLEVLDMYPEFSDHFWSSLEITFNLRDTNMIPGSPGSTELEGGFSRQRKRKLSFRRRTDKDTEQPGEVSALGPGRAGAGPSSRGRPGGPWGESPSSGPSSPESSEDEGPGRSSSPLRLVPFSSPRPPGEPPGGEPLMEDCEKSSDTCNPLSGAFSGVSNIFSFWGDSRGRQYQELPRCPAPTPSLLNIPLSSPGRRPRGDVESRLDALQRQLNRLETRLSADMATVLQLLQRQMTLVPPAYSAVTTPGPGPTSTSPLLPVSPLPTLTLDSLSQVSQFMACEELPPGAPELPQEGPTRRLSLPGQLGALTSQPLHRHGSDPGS
row,SMILES,"hERG current change (%, negative = inhibition) at 1uM"
1,Cn1c(=NC(=O)C2CCN(S(=O)(=O)c3cccs3)CC2)sc2ccccc21,8.29%
2,CCOC(=O)c1c(C)nn(-c2ccc(NC(=O)CSCC(=O)O)cc2)c1C,14.3%
3,COC(=O)c1ccc(NC(=S)NCCCn2ccnc2)cc1,16.8%
4,c1ccc(N2CCN(Cc3nc4ccccc4[nH]3)CC2)nc1,10.6%
5,COc1ccc(Cn2nnnc2CN2CCCCCC2)cc1,19.6%
6,OC1CCCN(CC(O)COC(c2ccccc2)c2ccccc2)C1 (stereo not shown),1.02%
7,COC(=O)n1c(=O)oc2cc(S(=O)(=O)N3CCCCC3)ccc21,-6.58%
8,CCOc1c(Nc2cccc(Cl)c2)c(=O)c1=O,9.31%
9,Cc1ccc(S(=O)(=O)N2CCN(C(=O)CSc3cc(C)ccc3C)CC2)c(C)c1,9.17%
10,COc1cc2[nH]c(=O)n(CCCCCC(=O)NCCCN3CCOCC3)c(=O)c2cc1OC,5.05%
11,CNC(=S)N/N=C(\C)c1ccc2c(c1)OCCO2,12.9%
12,COCCn1cnc2cc(C)c(C)cc21,5.67%
13,C=CCNC(=S)Nc1ccc2nsnc2c1,0.531%
14,CCOC(=O)Cc1csc(NS(C)(=O)=O)n1,12.1%
15,CC1(C)O[C@@H]2C[C@H]3[C@@H]4C[C@H](F)C5=CC(=O)CC[C@]5(C)[C@H]4[C@@H](O)C[C@]3(C)[C@]2(C(=O)CO)O1,18.1%
16,CSc1ccccc1C(=O)N(C)C(c1ccccc1)c1ccccc1,16.3%
17,COc1ccc(-c2c(C#Cc3ccccc3)c3ccccc3n2C)cc1,18.5%
18,C/C(=N\NC(=O)CNC(=O)c1ccc2c(c1)OCO2)c1ccco1,8.28%
19,CN(C(=O)Cn1cnc2sccc2c1=O)C1CCCCC1,-1.32%
20,CN(C=O)CP(=O)(O)CN(C)C=O,3.64%

row,SMILES,"hERG current change (%, negative = inhibition) at 1uM"
1,O=C(N/N=C/c1ccc(OCC(=O)N2CCCC2)cc1)C(=O)NC1CC1,11.2%
2,CCc1cc(-c2[nH]ncc2-c2ccc(OC)cc2)c(O)cc1O,14%
3,O=S(=O)(Nc1cccc2ccccc12)c1ccccc1,15.3%
4,COc1ccccc1-n1c(CNc2ccc(F)cc2)nnc1SCC(=O)Nc1cc(C)on1,3.58%
5,Cc1cccc(NC(=S)NNC(=O)Cc2ccccc2)c1,10.9%
6,Cc1cccc(C)c1NC(=O)NC1(C(=O)N2CCOCC2)CCCCC1,-1.99%
7,Cl.NC(N)=N/N=C/c1ccc(Br)cc1,7.07%
8,Cc1ccc(S(=O)(=O)N2CCC(Oc3cccc(C(F)(F)F)c3)CC2)cc1,13.2%
9,Cc1cc(Cl)ccc1OCC(=O)O,0.226%
10,Cc1ccc(N(C(=O)c2csnn2)C(C(=O)NC2CCCC2)c2ccccn2)c(C)c1 (stereo not shown),15.8%
11,CCCn1nnc(NC(=O)c2ccc(-c3cc(Cl)ccc3Cl)o2)n1,-0.826%
12,COc1ccc(NC(=O)Nc2ccc(OCC(=O)N3CCOCC3)cc2)cc1OC,3.2%
13,Cn1c2c(c(=O)n(C)c1=O)C1c3cc(Cl)ccc3OCC1CO2 (stereo not shown),2.85%
14,CCCCN1C(=O)C2NN=C(C(=O)OC)C2C1=O (stereo not shown),4.55%
15,CCn1cc(CN2CCN(Cc3ccccc3)C(CCO)C2)c2ccccc21 (stereo not shown),5.37%
16,COc1ccc(C)cc1NC(=O)c1ccccc1NS(=O)(=O)c1ccc(Cl)s1,13.3%
17,COc1cc(/C=C(\NC(C)=O)C(=O)Nc2ccccc2C)ccc1OC(C)=O,10.8%
18,Cc1ccc(N2C(=O)CC(Cn3nc(C)cc3C)C2=O)cc1 (stereo not shown),12.5%
19,CCC(=O)N1CCN(CCN=CC2=C(O)CC(c3ccc(OC)cc3)CC2=O)CC1 (stereo not shown),8.12%
20,CCOC(=O)c1c(-c2cccs2)csc1NC(=O)CN1CCOCC1,7.93%

row,SMILES,"hERG current change (%, negative = inhibition) at 1uM"
1,Cc1ccc(Oc2nc3ccccn3c(=O)c2/C=C(\C#N)C(=O)Nc2c(C)n(C)n(-c3ccccc3)c2=O)cc1,2.15%
2,O=C(c1ccccc1)c1ccc(OCC(O)CNC2CCCc3ccccc32)cc1 (stereo not shown),8.42%
3,Nn1cnc2sc3c(c2c1=O)CCC3,3.47%
4,CC(=O)Nc1cccc(C(=O)N2CCN(S(=O)(=O)c3ccc4ccccc4c3)CC2)c1,8.17%
5,Cn1c(CC(=O)Nc2ccccc2F)nnc1SCC(=O)NC1CCCCC1,7.95%
6,COc1ccccc1CNC(=O)CCS(=O)(=O)c1ccc(Cl)cc1,-1.52%
7,c1ccc2cc(OCCN3CCCC3)ccc2c1,0.252%
8,O=C(CSc1nnc(CNC(=O)c2c(F)cccc2Cl)o1)NC1CCCCC1,16.8%
9,O=C(O)CCC(=O)N(Cc1cccnc1)Cc1cccc(F)c1,14.5%
10,CCOc1cc(/C=C2\N=C(SCC)SC2=O)cc([N+](=O)[O-])c1OC(C)=O,7.85%
11,CCOc1cc(CNCCc2ccc(S(N)(=O)=O)cc2)ccc1OCC(=O)NC(C)(C)C.Cl,7.08%
12,COc1ccc(CCN(C)Cc2nc(-c3cnccn3)no2)cc1OC,12%
13,COc1cc(-c2cc(C(=O)OCC(=O)Nc3ccc4c(c3)OCO4)c3ccccc3n2)cc(OC)c1OC,12.4%
14,Cc1ccc(NC(=O)CCCN2C(=O)c3cccc4cccc(c34)C2=O)cc1,6.07%
15,CCOc1cc(C(=S)N2CCOCC2)ccc1OC(=O)/C=C/c1ccc(OC)c(OC)c1,9.97%
16,COC(=O)c1ccc(-c2nc(-c3ccc(Br)o3)no2)cc1,7.31%
17,CCCCC(c1nnnn1CC1CCCO1)N1CCN(c2cccc(C)c2C)CC1.Cl (stereo not shown),3.38%
18,O=C(COc1ccc(NC(=O)c2ccccc2)cc1)c1ccccc1,9.93%
